Test results published in the supplement of paper PMC11417369.
The list shows a part of the results.

system: PfAP2-HC AP2 domain (GST-tagged); experiment: gcPBM binding intensity (ln(normalized median fluorescence intensity)); higher = stronger DNA binding
In short: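 Probes on an Agilent 4 × 180k array were primer-extended, double-stranded and 36 bp long, taken from intergenic genomic regions, with negative controls added. GST-tagged P. falciparum DNA-binding domains from E. coli, about 25 μg on average, were applied to the array for 1 h in 1× PBS containing 1% milk, 0.2 mg/ml BSA, 0.5% salmon testes DNA and 0.03% Triton X-100. Binding intensity, obtained after Alexa488 anti-GST antibody detection and a 488 nm scan, is the highest Masliner-normalised natural-log median intensity across replicate spots of either probe orientation.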

Sequence | gcPBM binding intensity (ln)
ACCCATAAGATAATTACACACAATACATCCCTATAT [CACACA_site5262] | 9.97
TTTTTTTTTTTTTGTTGTACATTAAATATATTATTA [XGTACX_site7254] | 9.61
AAGCATATTATAAACACACACTGTATAAAGATATAT [CACACA_site6277] | 10.1
AAGTATAACCTTTATAATAATGACATGACCGATTTT [CACACA_negctrl_site395] | 9.65
ATATAACGAATAATTACACACTATAAAAAAAGATCT [CACACA_site2862] | 9.99
TATAACCGAATGTGTACACAAAATAATGTTATATAT [CACACA_site5627] | 9.92
ATAATACGAATTTGTAGTACATTTATAATAACATGA [XGTACX_site2614] | 9.62
CTTTTAAATTATTTTTGTACATAATTATATATATAT [XGTACX_site4128] | 9.7
AACTATAAATATAAATGTACACATATGTAATATATA [XGTACX_site6085] | 9.84
AAAAGGAAAATTTTCTTAGTAACTGCATTAAGAGAT [GTGCAC_negctrl_site675] | 9.71
TACTGTTTAAAATATAAACACACATTGTTTGCTTTA [CACACA_site8358] | 9.91
TTTTAATAACCAATCCGTACATATAATCTTTATATT [XGTACX_site536] | 9.59
TGGAAAAATAGGCACACACACATATATACATATATA [CACACA_site1297] | 10.5
TAAAAGTTATAAGAGTGTACGTATATTTATATATCA [XGTACX_site2972] | 9.63
TGAAAAATTACAAAAATAATAAAATGAAATAATAAA [GTGCAC_negctrl_site53] | 9.64
TTATTATATTCTCCTTCACACACAAAAATATTTCAT [CACACA_site8738] | 10.2
AGGACTAATATTTGAACACACATATAACATATACAT [CACACA_site7803] | 9.93
CCTCTTTATTTTAATTGTACATTTTTGTAGGTTTTT [XGTACX_site7130] | 9.94
AAAACAAACCCATTTACACACATAAATAAATCAATT [CACACA_site6126] | 9.99
ATGTATATATATATATGTACTAATTAGTAATTTACG [XGTACX_site6276] | 9.92
TCCTTTTTTTTGTAATGTACTTAGTTTGGTTATATG [XGTACX_site8208] | 9.78
TATTTACATGTAAAAGGTACACACATTATATATACA [XGTACX_site2157] | 9.86
TAAAATAAAACAAACACACACACACCCCCACAAAAA [CACACA_site3850] | 10.8

Sequence | gcPBM binding intensity (ln)
TTTATTATTTTTTGTAGTACTTTATATAAAAGTTCT [XGTACX_site4494] | 9.39
ATACACTTTTATATATCAATACATTATGTATTAAGT [CACACA_negctrl_site421] | 9.73
TTGATTATAATTAGTACACACAAAATACATGCGGGG [CACACA_site2277] | 9.97
AAATATATAATACATATGTAATATGCATATATATAT [GTGCAC_negctrl_site450] | 9.72
TTTTTATTACTTCTCTGTACTCAGGAAAATAAATAT [XGTACX_site2092] | 9.49
TGAATGTAAGAAAATACACACTAGTATAGTAACACC [CACACA_site5131] | 10.1
TTTCGTAAACAAATTTGTACGTACAAATTTATAAAT [XGTACX_site8175] | 9.49
TTTTTACTAATAAGATGTACATATATCCTAAGCATA [XGTACX_site251] | 9.42
TACATACATACATACACACATACATATATATATATA [CACACA_site1387] | 9.97
TCTTTTATTAGTAAAAGTACTTATATAAATATTATA [XGTACX_site5099] | 9.48
ATAATATAATAAACGTGTACACAATTAAATTATTAT [XGTACX_site3491] | 9.85
TGTTTTTTATTTAATTGTACGAATTAAAAAAAATAA [XGTACX_site3009] | 9.1
AATATTCATATGCAGGTGCATTAATTTTTATTAATT | 9.65
TTCCAACCATAGTATTCACACATTGTTTTATTCCAT [CACACA_site4927] | 9.91
AATACTCTATTTTATAGTACATATATTATTAATCAC [XGTACX_site6622] | 9.73
GAAAAAAAAAAAAATACACACAAATTGGTATATAAT [CACACA_site4369] | 9.92
TATCAAATCCAAAGGGGTACATTTTGTTGTCCTAAT [XGTACX_site5575] | 9.48
TAGCTCGTTCGGAGCACACACATATAAATAAATATA [CACACA_site7002] | 9.71
ATAGACAGCGCACAAACACACAAACACGCACGCACA [CACACA_site6349] | 10.2
TAGGGATTATACCACACACACATACCCATAAATATA [CACACA_site5719] | 10.4
TATTAACAAAATTTTTAACACACAAAAAAAAAAAAA [CACACA_site8542] | 9.59
CATAATATATTTTATGCATGCAAAGCAACCTTTTGA [TGCATGCA_site715] | 9.55
TTTTTTGTTATATTTGTGCGCAAAAATTGCTGCTTG | 9.63

Sequence | gcPBM binding intensity (ln)
AAAATTTATGTAAAATGTACATACATAAATAAAGAT [XGTACX_site4339] | 9.9
TTTGTAAAATAATATCTTTCATGTCCTTACTAATTA [GTGCAC_negctrl_site145] | 9.63
TATTTATTTAAAGGCACACATATTTTTATACTTTCT [CACACA_site3163] | 9.79
ATTATATATATATATAAACACACATAAATATAAATA [CACACA_site8291] | 9.92
AAAAAAGAAAAGAAATCATGAAAGAATCAAATAAAG [CACACA_negctrl_site1771] | 9.67
CAAATTTTTTATTAAACACACAAACATATATTTATA [CACACA_site6992] | 9.62
TTTTTATATATATTCTCACACACTTTTTATTTTAAC [CACACA_site657] | 9.91
TAAGGAAAAAATTATAGTACATAATAAATGTATATA [XGTACX_site8328] | 9.67
ATAAATATATTTCACGCACACACACCCCAAATAAAT [CACACA_site9272] | 10.4
AATTTTTTTTTTTTTTTTTCTTTTGTAATAAACCAT [XGTACX_negctrl_site334] | 9.36
TTCAGCATAAACACTTGTACATATATACTAAAAATT [XGTACX_site7272] | 9.57
AAAAAAAAAAAACACACACACACACCGAAATATATA [CACACA_site4261] | 10.6
CGTTGTAGGGAATGTAGTACAGTTATTATTTTATTA [XGTACX_site2429] | 9.66
TCATACATTTTCAGCCTGCACTTATATTTAATAATA [GTGCAC_site9863] | 9.64
TATATATATAAATACACACACACACCGATATATATA [CACACA_site5408] | 10.5
ATATATATATATTATACACACGCCGAAAAAATAAAA [CACACA_site1551] | 9.88
TTTATTTTATCTAAAAGTACTTAAATTAGTGTATTT [XGTACX_site5696] | 9.53
TTACGAAAAAACAAGAGTACATGATGTTATAAAATA [XGTACX_site1412] | 9.76
TATTAATTATTTTACTGTACTAATAATACTTTTATT [XGTACX_site2179] | 9.74
ATTATATTTTTAAGTACACACATATAAATAAATATA [CACACA_site7682] | 9.51
ATTATGTGAGGTAACTAAATATGTACGTAACGAAGA [CACACA_negctrl_site1400] | 9.73
TAATGTATAATTAATCGTACATTAGATTGTTGTGTT [XGTACX_site52] | 9.63
ATATATATATATGTGTGTACTTAAAAATATAATGCA [XGTACX_site7753] | 10

Sequence | gcPBM binding intensity (ln)
ATTTCCCCAACGTGGGTGCATATATTTATGTGTGAA [GTGCAC_site9439] | 9.64
TTTAGAGAAGTCAAGTGTACATATAAAATAATTCAC [XGTACX_site4997] | 9.53
ATAAAAATAAATAAATTATATAAATGTAATATGAAA [GTGCAC_negctrl_site663] | 9.78
AAAAAAAAATATATATGTACATATGTATAATAAAAA [XGTACX_site2110] | 9.82
AATGAAGACTTTTTTACACACTTCATATATTATATA [CACACA_site2034] | 9.72
TATTTATTTATATATGCATGCTAATAATTATAACAT [TGCATGCA_site988] | 9.65
ACCTATGTATATTATACACACTCCAAACTATTCTTT [CACACA_site6939] | 9.95
ATATTATATAACTTTTGTACGAACTATTTTATATAT [XGTACX_site6] | 10
TAAAGTGTCAAATTCACACACATATATATATATATA [CACACA_site1380] | 9.99
TTTTTTTTTGTTAGTTGTACGTTAAATGAATTTACT [XGTACX_site7675] | 9.65
TAAATTAGAATAAATACACACAAATTAGAATTCTAT [CACACA_site7781] | 9.77
GTATAATTGGAAATTACACACCTTATAATGTAACAT [CACACA_site6091] | 9.73
AATGATTTTAAAAAATGTACTTTATAAACAAAATTA [XGTACX_site3803] | 9.45
CATGAATATTTTAATGTGCACATTTATCATTATATG | 9.86
ATATTTTCAGTTCTCCATTATGTTCCCATTATTTTT [CACACA_negctrl_site990] | 9.94
CCAAACTAAATGTACACACATACATAAATATAAATA [CACACA_site1141] | 9.96
ATGTAATAAATATACACACACAAATATATATATATA [CACACA_site2395] | 10.7
ATATATATATATATATGGTAAAGTAAAAGGAAATAC [XGTACX_negctrl_site45] | 10.2
GAATAATCTAGAAACACACAAACACGACAAAAGAAA [CACACA_site4135] | 10.2
TACTAACTTTTTAAAAGTACAGAACCATAACCATAA [XGTACX_site7182] | 9.61
